Laboratory results taken from paper PMC4336329 (PLoS ONE, 2015).
About 2,200 (0.71%) of roughly 310,000 compounds showed an effect of 50% or more. Effects have a minus sign here. The list shows a part of the results.

Each compound was assayed against human ether-à-go-go-related gene (hERG) potassium channel (human, UniProt Q12809) (assay: primary screen, population patch clamp on CHO cells stably expressing hERG).
Sequence of human ether-à-go-go-related gene (hERG) potassium channel (Q12809 whole entry, looked up): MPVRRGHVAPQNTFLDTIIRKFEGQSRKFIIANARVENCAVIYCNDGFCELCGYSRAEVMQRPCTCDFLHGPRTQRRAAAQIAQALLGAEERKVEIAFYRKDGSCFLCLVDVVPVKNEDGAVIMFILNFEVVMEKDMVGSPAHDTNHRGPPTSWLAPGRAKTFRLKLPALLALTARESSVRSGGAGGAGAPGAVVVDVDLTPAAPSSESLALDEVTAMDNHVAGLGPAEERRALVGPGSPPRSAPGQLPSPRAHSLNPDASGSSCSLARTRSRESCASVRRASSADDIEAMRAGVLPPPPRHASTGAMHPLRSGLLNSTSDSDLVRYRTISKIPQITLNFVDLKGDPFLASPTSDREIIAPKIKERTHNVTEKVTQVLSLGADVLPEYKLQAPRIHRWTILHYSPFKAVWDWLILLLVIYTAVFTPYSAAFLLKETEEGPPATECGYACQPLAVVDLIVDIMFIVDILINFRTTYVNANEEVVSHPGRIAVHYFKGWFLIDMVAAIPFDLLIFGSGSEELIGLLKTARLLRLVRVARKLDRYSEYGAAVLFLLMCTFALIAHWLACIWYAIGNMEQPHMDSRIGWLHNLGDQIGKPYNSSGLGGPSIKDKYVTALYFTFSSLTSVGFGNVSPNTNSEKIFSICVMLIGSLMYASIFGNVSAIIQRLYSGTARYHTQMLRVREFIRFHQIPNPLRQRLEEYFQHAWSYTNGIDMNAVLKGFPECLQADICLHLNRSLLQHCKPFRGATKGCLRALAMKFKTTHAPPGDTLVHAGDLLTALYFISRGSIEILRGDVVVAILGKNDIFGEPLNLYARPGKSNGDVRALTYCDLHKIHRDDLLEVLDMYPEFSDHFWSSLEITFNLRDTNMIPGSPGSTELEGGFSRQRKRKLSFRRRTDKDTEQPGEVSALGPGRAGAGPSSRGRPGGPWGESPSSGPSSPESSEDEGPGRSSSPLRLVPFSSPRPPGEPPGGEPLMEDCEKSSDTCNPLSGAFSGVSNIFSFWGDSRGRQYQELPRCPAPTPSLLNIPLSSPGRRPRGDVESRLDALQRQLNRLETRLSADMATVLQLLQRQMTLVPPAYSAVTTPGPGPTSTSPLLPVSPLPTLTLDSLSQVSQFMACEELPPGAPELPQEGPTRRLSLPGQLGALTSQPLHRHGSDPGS

| SMILES | hERG current change (%, negative = inhibition) at 1uM [%] |
| --- | --- |
| Cc1nn(Cc2ccc(Cl)cc2)c(C)c1NC(=O)C1CC=CCC1C(=O)O (stereo not shown) | 10.1 |
| O=C(Nc1ccccc1-c1ccccc1)c1ccccc1[N+](=O)[O-] | 14.4 |
| N#CCC(=O)Nc1ccc(C(=O)OCC(=O)N2CCCC2=O)cc1 | 13.5 |
| CN(c1cccc(NC(=O)CN(c2ccc(Cl)c(Cl)c2)S(=O)(=O)c2ccccc2)c1)S(C)(=O)=O | 3.57 |
| CC1=CC(C)(C)NC(=S)N1c1cccc2ccccc12 | 13.7 |
| COCCCNC(=O)C(C)N1c2cccc3cccc(c23)S1(=O)=O (stereo not shown) | 14 |
| CCc1ccc(NC(=O)CSc2nnc(CC)c(CC)n2)cc1 | -11.6 |
| S=c1[nH]nc(Cn2cnc3ccccc32)n1-c1ccccc1Cl | 12.8 |
| COc1ccc(C2CC2/C(C)=N/OC(=O)c2ccc(F)cc2)cc1 (stereo not shown) | 9.09 |
| O=C(COC(=O)c1ccco1)NCCc1ccc(Cl)cc1 | -2.34 |
| COc1ccc(C2=NN(CCC(=O)NCc3ccc4c(c3)OCO4)C(=O)CC2)cc1 | 13.3 |
| O=C(CSc1nnc(NC(=O)c2cccc(F)c2)s1)NC1CC1 | 15.3 |
| COc1ccc2cc(C(=O)C3CCCN(C(=O)c4cncs4)C3)ccc2c1 (stereo not shown) | 9.26 |
| COc1ccccc1CCNS(=O)(=O)CCNC(=O)c1ccc2c(c1)OCO2 | 11.7 |
| COc1cc(C2c3c(-c4cc(C)cc(C)c4O)n[nH]c3C(=O)N2CCCO)cc(OC)c1OC (stereo not shown) | 4.34 |
| O=C(O)c1ccc(OCC(F)(F)F)nc1 | 12.9 |
| O=C(/C=C/c1ccccc1)NCCCNC(=O)/C=C/c1ccccc1 | 8.48 |
| CCOC(=O)C1=C(CS(=O)(=O)c2ccc(F)c(C)c2)NC(=O)NC1c1ccc(O)c(O)c1 (stereo not shown) | 7.8 |
| Cc1cc(C(=O)N/N=C/c2ccncc2)c(C)o1 | 17 |
| CCc1ccc(CNC(=O)c2nn(C)c3c2CS(=O)(=O)c2ccccc2-3)cc1 | 8.78 |
| COc1cc(NC(=O)Cn2cnc3sc(C)c(S(=O)(=O)N4CCN(C)CC4)c3c2=O)cc(OC)c1OC | 8.88 |
| CC(=O)N1CCC(C(=O)Nc2nc(-c3ccccc3)ns2)CC1 | 1.53 |
| Cc1cccc(CN2CCN(C(=O)CN(C)C(C)C(=O)Nc3ccc(C(N)=O)cc3)CC2)c1 (stereo not shown) | 17.8 |
| O=C(NNC(=O)c1ccccc1Br)c1ccc(Cl)cc1 | -6.66 |
| CCN1/C(=C/C(=S)Nc2ccccc2)Sc2ccccc21 | 16.3 |
| Cn1c(CNc2ccc(F)cc2)nnc1SCC(=O)NNC(=O)Cc1ccccc1 | 13 |
| O=C(C(NS(=O)(=O)c1cccc2nsnc12)c1ccccc1)N1CCN(c2ccccc2)CC1 (stereo not shown) | -5.63 |
| CCOc1cc([N+](=O)[O-])cc2c1C(=O)Nc1ccccc1O2 | 10.3 |

| SMILES | hERG current change (%, negative = inhibition) at 1uM [%] |
| --- | --- |
| COc1ccc(N2CCN(C(=O)c3ccccc3N(C)S(=O)(=O)c3ccc(C)cc3)CC2)cc1 | 7.67 |
| COc1ccc(OC)c(C2C(C(=O)c3cccs3)=C(O)C(=O)N2CCN2CCOCC2)c1 (stereo not shown) | 14.2 |
| COCCCN(Cc1cccs1)S(=O)(=O)c1c[nH]c(C(=O)OC)c1 | 17.6 |
| Cc1c(S(=O)(=O)N2CCN(C(c3ccccc3)c3ccccc3)CC2)c(=O)n(C)c(=O)n1C | 3.78 |
| Cc1onc(-c2ccccc2Cl)c1C(=O)NC1CCCCCC1 | 11.1 |
| COc1cc2[nH]c(=S)n(Cc3ccccc3)c(=O)c2cc1OC | 9.13 |
| Cc1cccc(C(=O)NC(=S)Nc2ccc(S(=O)(=O)N3CCN(C)CC3)cc2)c1 | 8.98 |
| Cl.O=C(OCCN1CCOCC1)c1ccc2c(c1)OCCO2 | 8.19 |
| Cc1nnc(SCC(=O)N(C(C)C)C(C)C)[nH]c1=O | 6.48 |
| Cc1ccc(C)c(NC(=O)NC2CCCCCCC2)c1 | -5.57 |
| CC(=O)Nc1ccc(N2CCc3c(C)c(C#N)c4nc5ccccc5n4c32)cc1 | 10.3 |
| Cn1c2ccc(F)cc2c2ncn(CCCN(CCO)CCO)c(=O)c21 | -13.9 |
| CCOC(=O)C/C(C)=N\Nc1ccc([N+](=O)[O-])cc1[N+](=O)[O-] | 0.973 |
| NC(=O)CC[C@@H]1NC(=O)[C@H](CO)NC(=O)c2cc([N+](=O)[O-])cc(I)c2NCCCC[C@@H](C(N)=O)NC(=O)[C@H](Cc2ccc(O)cc2)NC1=O | 7.25 |
| CCOC(=O)c1c(NC(=O)c2cccs2)sc2c1CCN(C(=O)OCC)C2 | -5.88 |
| CC(C)c1ccc(CN(C)C(=O)c2ccc(S(=O)(=O)NCc3ccco3)cc2)cc1 | 5.28 |
| CCC(=O)NNc1ncnc2ccccc12 | 8.52 |
| O=C(NCCN1CCCCCC1)C1CCCN1S(=O)(=O)c1cccc2nsnc12 (stereo not shown) | 7.05 |
| CCc1cc2cc(C(=O)N3CCN(c4ccccc4)CC3)sc2s1 | 12.3 |
| CCNC(=O)Nc1ccccc1C(=O)OC | 14.9 |
| O=C(CSC1CCCCC1)N1CCN(c2ccccc2)CC1 | 10.9 |
| COC(=O)CSc1ccc(S(=O)(=O)N2CCOCC2)cc1[N+](=O)[O-] | 6.98 |
| CCn1cc(C2=NCC(C)O2)c2ccccc21 (stereo not shown) | 4.87 |
| Cc1cc(C)c(OCC(=O)Nc2ccc(S(=O)(=O)N3CCCC3)cc2)c(C)c1 | -11.3 |
| O=C(Cc1ccccc1)NC(=S)Nc1ccc2oc(-c3ccccc3)nc2c1 | 8.31 |
| CCOC(=O)CNC(=O)CSc1nc2cccnc2n1C1CCCCC1 | 13.2 |
| O=C(COC(=O)CN1C(=O)C(=O)c2ccccc21)OCN1C(=O)c2ccccc2C1=O | -5.15 |
